The supplement of paper PMC12632987
The full ranking holds about 1,800 sequences; the median of “median log2 fold change of GCK-ALFA target abundance (FLAG IP / Myc IP barcode read proportion)” is about 0.14, and the lowest 2% start at about -0.84. Some of the results follow.

T1: TRAF2, Q12933
T1 chain: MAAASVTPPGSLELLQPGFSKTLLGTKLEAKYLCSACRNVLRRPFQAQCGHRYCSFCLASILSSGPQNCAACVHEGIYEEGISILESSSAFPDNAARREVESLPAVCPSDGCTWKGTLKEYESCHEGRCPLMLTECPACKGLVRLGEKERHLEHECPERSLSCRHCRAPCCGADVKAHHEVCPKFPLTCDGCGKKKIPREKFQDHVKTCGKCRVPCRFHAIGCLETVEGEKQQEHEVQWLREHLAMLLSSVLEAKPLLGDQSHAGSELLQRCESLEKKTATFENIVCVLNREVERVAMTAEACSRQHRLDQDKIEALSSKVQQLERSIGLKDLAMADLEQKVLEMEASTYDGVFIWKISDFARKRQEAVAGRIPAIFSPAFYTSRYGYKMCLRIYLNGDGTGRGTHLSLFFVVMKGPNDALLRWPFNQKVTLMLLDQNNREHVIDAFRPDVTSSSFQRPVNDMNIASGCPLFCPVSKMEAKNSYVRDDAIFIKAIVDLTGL

B1: traf2_out_20_3_2166 (protein)
chain: EELEKKAEEELKKALELLKEAAKLADPETAKRLEELIKRLKASEELSPVDRLVVVSEVRREVLLLAQEARAAGDEELAELLEKAADALNRLAQLLYEIIE
B2: traf2_out_11_104_652 (protein)
chain: LTREQARKFNDFAMEQRDRAQEIGRAVAAALRAAGEDAAAARVEALLADPGAGISSFRNLLEELRPELDPASQAVADAAIERLEELQREASEKLNELEAE
B3: traf2_out_11_155_707 (protein)
chain: SEKLEIYQQLVNENMEIADEALEKLNELIKEIAKKDPEVAKELKKVLEENKDAGYTTKLLLAEKVLKAAGYEEEAKKVKEILEEAQKKSNEIAKKAEEKL
B4: traf2_out_16_104_1375 (protein)
chain: SAERDEEFERIIEELERIAEEAQRLANRLMKLMEKASPEKKVEISDALVEVSRLRREALLAAQEVRERRERGGDLEEARRELERLREELERARREVEELE
B5: traf2_out_13_95_1194 (protein)
chain: EEEKRKKYKEKTNEIADKLLDFADELIDEITAATGDAALGAELRTVLNRYGVRALVHYIREQAKKNPEHKALFEEAAEKLEEKIREAGREVAREEKKIEE
B6: traf2_out_20_3_2059 (protein)
chain: SELEKKIEELTKKLKEKLKELEKLLPPEEAAELRAAWKEVEEAAKKGLEEYLIAVSRLRRLLLRLAEEAEARGDAETAALLREAADLAGKIANLVYKKIE
B7: traf2_out_1_158_913 (protein)
chain: DTKKSLMLSVVELVVRDAVESAREAGREETAAALEELGREIIELVRRLLVEEGKSVEEVIAAIDELAARAIARADPETAAAIERLRRQVITGLRQVDKLM
B8: traf2_out_11_169_864 (protein)
chain: KEKEFNRKLIDFALEVEDEAKKKLEEFALKLAKEEGLDVEEVKAIFEKNKNKSLSAIASALIKYFESKGKKDAAKKILEKHDELKEEINKKVSEKIKELK
B9: traf2_out_18_167_1853 (protein)
chain: EEEKRKKREELMDRLVDLSEVKRAARALIQALRTDPAQAPAALAALEAAAAKVPELQPLVAAIRAALAAGDREGALAALEALIAEAQRLANEAMEEYEKS
B10: traf2_out_1_27_991 (protein)
chain: SDKEIAERIKEASRKMANSSLEEKLKIARELIRELAEVGKGDARTAAVILVSTMKTEEEFEALLEEIERTFRELGWSEEEIAEIRRQMRTMWELLKKALA
B11: traf2_out_14_149_1238 (protein)
chain: SHMAELFKAAAELAEKAAKALKEVVKLLKAGKVEEAKKLLEETIKYLKEEGEKHGISISIIYVLEHIVELLDKDVEAAKKAAEAAEKRAKDRAEAYKSLA
B12: traf2_out_5_63_2354 (protein)
chain: SEREELTELARRADRLALAALEAAEAGDEAEAEALLAEALEDPELARLVIGILRGLARYYELRGDRPERAALARRLADRLEAALEERERAERAAAEEAAR
B13: traf2_out_8_15_2556 (protein)
chain: SLEEAAKKDLEKLKAHSDGDLESFANAALGFARAEVRYAKILLEEGKKELALNTLKYARALIKKTLEYAKKEGLPNLEEVEKEAKKLLEEIEKIEKEIKE
B14: traf2_out_20_3_2113 (protein)
chain: EELEEKLKKALKEAKKLLKEAAKLADKETAKVLKELAKELEKSEKLSPVDRLVVVSEIKRKVRLLAQEAKKKGDKELAAVLEKAADALNKAANLLMKIIE
B15: traf2_out_17_162_1644 (protein)
chain: SELEEQIEELERRLEELEERVERLEELTKTIETYSEEELSDLIVEASEVKREALELLQEIESLKDKLSPERYEELSSRAEEIIERAQRVAQRFYDARLAK
B16: traf2_out_13_95_1057 (protein)
chain: SLELARRIMELADRAEEEVDAALDEAKARLADDPAAVAVLDEARRAARTRGINEAIHILREAKAADPAHAAEFTELIERLEAIKRETGREVARLIREEQE
B17: traf2_out_11_169_798 (protein)
chain: KEKEKNRKINDKALELNDEAKEELLKHAKELAKKAGLDVEEVEKIYEKNKNKSLSAVASALIKYFESKGAEEEAKAVLEKYEELKEEINKKMTEFIKELE
B18: traf2_out_11_79_925 (protein)
chain: SALSEELKEIAERLEELIERLKEAQANPETREETLAEILRELREVYNRVGQLLLKTENTDLGFVATEIRDAIRALEAGDLEEALEELEEALEEVKRILEE
B19: traf2_out_5_189_2324 (protein)
chain: SAREEEERRDRERARRLAKEASELLNKMQAAGASNEEIIDAFLEAAAKLSIEDARLFTGIAYAIWEGLALANNDEAALAAARRFRERAAALVAERRAAAA
B20: traf2_out_20_3_2152 (protein)
chain: TPLEEEAERALEEAERLLREAAELADPETAARLEELLERVRRSRELPPDERLVVLSEVRREVRALAEEARAAGREELAAVLEEAADALNRAMQLVYQLIL
B21: traf2_out_13_95_1218 (protein)
chain: SEEANEKLRKIANDMLDKVEEILEELEEKLKPYPETKEDIEKIKHALRNYGIHQAIAVLEEASKKHPEVKELFDEAIEKIKKIIKEAGKKVAEVLKEEEE
B22: traf2_out_13_95_1199 (protein)
chain: EEEKTKKIREVTNEIADKLLAFADETAAEVEARTGDAAAAARVRAALDGHGVSAAIHVLRELAAADPAHAAVYLEAAERLEEKRREAGKEVAKELKKIEE
B23: traf2_out_11_104_640 (protein)
chain: LTREQAREFNDFAMEKEDEARAVAAALAAQLEAAGETEAAARVRAALAHPGSGISTFRNLLEDLRPELSPEAAAAADAAIAELRALQAEVSKKLNELEKK
B24: traf2_out_11_104_632 (protein)
chain: KKKEALNAYVDAMMEEAKKSMEEALKRLEELVPEAKEEIAKIRELIEKGRFGAAREAMYEALLKHFSPEEAEKIMEELLEKHEKRASKVHKEMEKKIEEA
B25: traf2_out_20_38_2020 (protein)
chain: SAEEEEERKLEELIRHAREAYDKAEKWVAELQAQGKSVEEIAEAAKKKVKELLTKHGLEEEAKILIEEIDRVLDSPDALRLIVQILARAETLVFQKELQK
B26: traf2_out_11_155_712 (protein)
chain: EKKLEIYQELVDKNMEIADEALKKLEELIEEIEKEDPEVAAELRAVLEANKDAGITTKLLLAERVLRKAGYEEKAKKVREILEEAQRKSNEIAKEAEEKL
B27: traf2_out_11_169_773 (protein)
chain: EEAEKNRKINDFALELNDEAKEKLKEEALKLAEEEGLDVEEIKKIFEKNKNKSLSAVASALINYFNSKGKEEAAKKVLEKYEELKEEINKKSSEFIKSLE
B28: traf2_out_6_156_2379 (protein)
chain: KAEEILKKAEEEIKEQIKKLAAASEEKKIAYISKIAGAVYRALQALREAGASVEELKEAGERLRKVAEEEAKKAGLDEDTINLLLASIDAVVEVALEEAK
B29: traf2_out_6_156_2380 (protein)
chain: MKEEILEEAKEKIKELIKKLAEASEEKKIKYISEIAGAVYRALQRLREAGASVEEIEEAVRELKETAEEEAKKAGLDEDTRNLLLGSINAVGEVALREAR

Molecular target: T1, TRAF2, Q12933
Test: median log2 fold change of GCK-ALFA target abundance (FLAG IP / Myc IP barcode read proportion) (log2 ratio); each designed protein is fused to an ALFA-tag nanobody in HEK293 cells to bring the named protein to FLAG-tagged glucokinase (GCK); Myc marks an untargeted standard; higher = target protein stabilised (more abundant)
Details: target protein: 3xFLAG-MCP-GCK-ALFA reporter; HEK293 landing pad (RPLP)
Outline: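 An ALFA-nanobody-fused binder library was recombined into HEK293 landing-pad cells and induced with 2 μg mL^−1 doxycycline. Cells were transfected with a plasmid expressing a FLAG-tagged target and a Myc-tagged standard. After 48 h, lysates underwent anti-FLAG and anti-Myc immunoprecipitation, and circular RNA barcodes were reverse transcribed, amplified and sequenced. Target abundance is the per-binder median log2 ratio of FLAG to Myc barcode read proportions. Barcodes needed ≥10^−7 proportion in both replicates, binders ≥3 barcodes per replicate, and a 10^−6 pseudocount was added; the two replicates were pooled.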

Row | Binder | median log2 fold change
1 | B1 | -0.224
2 | B2 | 0.149
3 | B3 | 0.384
4 | B4 | 0.00548
5 | B5 | 0.156
6 | B6 | 0.304
7 | B7 | -0.0918
8 | B8 | -0.302
9 | B9 | 0.11
10 | B10 | -0.0734
11 | B11 | -0.231
12 | B12 | 0.178
13 | B13 | 0.0845
14 | B14 | -0.44
15 | B15 | 0.226
16 | B16 | -0.146
17 | B17 | -0.0687
18 | B18 | 0.415
19 | B19 | -0.0823
20 | B20 | 0.0494
21 | B21 | -0.012
22 | B22 | 0.226
23 | B23 | 0.245
24 | B24 | 0.177
25 | B25 | 0.159
26 | B26 | 0.0718
27 | B27 | 0.243
28 | B28 | 0.106
29 | B29 | 0.085
